Measured values as given in the supplement of paper PMC4604168 (melanoma cell lines).
The list shows a part of the results. Many values rest on one well or one pass, so single values are uncertain.

Experiments:
Assay in all cases: cell count relative to DMSO control; melanoma cells; higher = more viable cells
Settings in all cases: library dose: standard library concentration; 72 h
[1] = test system: G361
[2] = test system: IPC-298
[3] = test system: IST-MEL1
[4] = test system: LB2518-MEL
[5] = test system: LOXIMVI
[6] = test system: MEL-HO
[7] = test system: MZ2-MEL
[8] = test system: MeWo
[9] = test system: RPMI7951
[10] = test system: RVH-421
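Also: cells treated in 1,536-well plates, then fixed and DAPI-stained, with nuclei counted from automated high-throughput microscope images.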

SMILES: Cc1cn(-c2cc(NC(=O)c3ccc(C)c(Nc4nccc(-c5cccnc5)n4)c3)cc(C(F)(F)F)c2)cn1 [nilotinib] + CN1CCN(c2ccc3nc(-c4c(N)c5c(F)cccc5[nH]c4=O)[nH]c3c2)CC1 [Dovitinib] (first compound 1 µM, partner dose 0.5 µM)
- cell count [1]: 76.1%
- cell count [2]: 68.1%
- cell count [3]: 78.4%
- cell count [4]: 52.2%
- cell count [5]: 110%
- cell count [6]: 88.6%
- cell count [7]: 49.8%
- cell count [8]: 67.4%
- cell count [9]: 64.7%
- cell count [10]: 103%

SMILES: Cc1cn(-c2cc(NC(=O)c3ccc(C)c(Nc4nccc(-c5cccnc5)n4)c3)cc(C(F)(F)F)c2)cn1 [nilotinib] + C[C@@H](Oc1cc(-c2cnn(C3CCNCC3)c2)cnc1N)c1c(Cl)ccc(F)c1Cl [Crizotinib] (first compound 1 µM, partner dose 1 µM)
- cell count [1]: 89.2%
- cell count [2]: 105%
- cell count [3]: 99%
- cell count [4]: 99.6%
- cell count [5]: 134%
- cell count [6]: 97.6%
- cell count [7]: 91.4%
- cell count [8]: 79.1%
- cell count [9]: 73.9%
- cell count [10]: 94.1%

SMILES: Cn1c(=O)n(-c2ccc(C(C)(C)C#N)cc2)c2c3cc(-c4cnc5ccccc5c4)ccc3ncc21 + CCN(CC)CCCCNc1ncc2cc(-c3cc(OC)cc(OC)c3)c(NC(=O)NC(C)(C)C)nc2n1 [PD173074] (first compound 0.02 µM, partner dose 0.5 µM)
- cell count [1]: 44.6%
- cell count [2]: 65.5%
- cell count [3]: 69.7%
- cell count [4]: 87%
- cell count [5]: 73.1%
- cell count [6]: 69.6%
- cell count [7]: 62.9%
- cell count [8]: 55.6%
- cell count [9]: 71.8%
- cell count [10]: 70.8%

SMILES: Cc1cc(Nc2cc(N3CCN(C)CC3)nc(/C=C/c3ccccc3)n2)n[nH]1 + COc1cc2c(Oc3ccc4[nH]c(C)cc4c3F)ncnc2cc1OCCCN1CCCC1 [cediranib] (first compound 0.2 µM, partner dose 2 µM)
- cell count [1]: 100%
- cell count [2]: 109%
- cell count [3]: 104%
- cell count [4]: 89%
- cell count [5]: 63.4%
- cell count [6]: 111%
- cell count [7]: 103%
- cell count [8]: 76%
- cell count [9]: 66.1%
- cell count [10]: 73.7%

SMILES: CC(C)C[C@H](NC(=O)[C@H](Cc1ccccc1)NC(=O)c1cnccn1)B(O)O [Bortezomib] + C#Cc1cccc(Nc2ncnc3cc(OCCOC)c(OCCOC)cc23)c1 [erlotinib] (first compound 0.005 µM, partner dose 4 µM)
- cell count [1]: 0.995%
- cell count [2]: 10.3%
- cell count [3]: 9%
- cell count [4]: 3.81%
- cell count [5]: 29.6%
- cell count [6]: 36%
- cell count [7]: 4.85%
- cell count [8]: 19.8%
- cell count [9]: 5.42%
- cell count [10]: 4.19%

SMILES: CC(C)C[C@H](NC(=O)[C@H](Cc1ccccc1)NC(=O)c1cnccn1)B(O)O [Bortezomib] + COC(=O)c1sccc1S(=O)(=O)Nc1ccc(Nc2ccccc2)cc1OC [GSK0660] (first compound 0.005 µM, partner dose 5 µM)
- cell count [1]: 0.768%
- cell count [2]: 7.92%
- cell count [3]: 4.28%
- cell count [4]: 2.37%
- cell count [5]: 64.2%
- cell count [6]: 22.6%
- cell count [7]: 5.23%
- cell count [8]: 5.96%
- cell count [9]: 5.61%
- cell count [10]: 9.55%

SMILES: COc1ccc(C2=N[C@@H](c3ccc(Cl)cc3)[C@@H](c3ccc(Cl)cc3)N2C(=O)N2CCNC(=O)C2)c(OC(C)C)c1 [Nutlin-3] + Cc1cc(Nc2cc(N3CCN(C)CC3)nc(/C=C/c3ccccc3)n2)n[nH]1 [ENMD2076] (first compound 0.5 µM, partner dose 0.2 µM)
- cell count [1]: 68.7%
- cell count [2]: 96%
- cell count [3]: 110%
- cell count [4]: 59.1%
- cell count [5]: 62.7%
- cell count [6]: 84.3%
- cell count [7]: 88%
- cell count [8]: 77.7%
- cell count [9]: 84.4%
- cell count [10]: 53.6%

SMILES: CC(C)C[C@H](NC(=O)[C@H](Cc1ccccc1)NC(=O)c1cnccn1)B(O)O [Bortezomib] + O=C(O)[C@@H]1[O][Sb](=[O])([O][Sb]2(=[O])[O][C@H]([C@H](O)CO)[C@H](O)[C@H](C(=O)O)[O]2)[O][C@H]([C@H](O)CO)[C@@H]1O [stibogluconate] (first compound 0.005 µM, partner dose 10 µM)
- cell count [1]: 0.999%
- cell count [2]: 5.32%
- cell count [3]: 11.9%
- cell count [4]: 6.06%
- cell count [5]: 30.1%
- cell count [6]: 12.2%
- cell count [7]: 5.55%
- cell count [8]: 13.3%
- cell count [9]: 1.8%
- cell count [10]: 12.3%

SMILES: COc1ccc(C2=N[C@@H](c3ccc(Cl)cc3)[C@@H](c3ccc(Cl)cc3)N2C(=O)N2CCNC(=O)C2)c(OC(C)C)c1 [Nutlin-3] + C[C@@H](Oc1cc(-c2cnn(C3CCNCC3)c2)cnc1N)c1c(Cl)ccc(F)c1Cl [Crizotinib] (first compound 0.5 µM, partner dose 1 µM)
- cell count [1]: 59.6%
- cell count [2]: 104%
- cell count [3]: 103%
- cell count [4]: 65.1%
- cell count [5]: 82.2%
- cell count [6]: 97.7%
- cell count [7]: 90.8%
- cell count [8]: 82.5%
- cell count [9]: 96.1%
- cell count [10]: 65.7%

SMILES: Cc1cc(Nc2cc(N3CCN(C)CC3)nc(/C=C/c3ccccc3)n2)n[nH]1 + C[C@]1(c2nc3c(C(N)=O)cccc3[nH]2)CCCN1 [Veliparib] (first compound 0.2 µM, partner dose 7 µM)
- cell count [1]: 92.3%
- cell count [2]: 93.5%
- cell count [3]: 108%
- cell count [4]: 70.6%
- cell count [5]: 77.2%
- cell count [6]: 105%
- cell count [7]: 98.1%
- cell count [8]: 82.7%
- cell count [9]: 102%
- cell count [10]: 90.9%

SMILES: Cc1cn(-c2cc(NC(=O)c3ccc(C)c(Nc4nccc(-c5cccnc5)n4)c3)cc(C(F)(F)F)c2)cn1 [nilotinib] + CC(=O)c1c(C)c2cnc(Nc3ccc(N4CCNCC4)cn3)nc2n(C2CCCC2)c1=O [palbociclib] (first compound 1 µM, partner dose 0.2 µM)
- cell count [1]: 65.3%
- cell count [2]: 74.4%
- cell count [3]: 84.8%
- cell count [4]: 71%
- cell count [5]: 78.9%
- cell count [6]: 78.4%
- cell count [7]: 64.3%
- cell count [8]: 65.9%
- cell count [9]: 54.1%
- cell count [10]: 73%

SMILES: Cc1cc(Nc2cc(N3CCN(C)CC3)nc(/C=C/c3ccccc3)n2)n[nH]1 + COc1ccc(Cl)c(Nc2nc3ccccc3nc2NS(=O)(=O)c2cccc(NC(=O)C(C)(C)N)c2)c1 [XL147] (first compound 0.2 µM, partner dose 4 µM)
- cell count [1]: 69.8%
- cell count [2]: 70.9%
- cell count [3]: 56.1%
- cell count [4]: 71.8%
- cell count [5]: 81.7%
- cell count [6]: 72.8%
- cell count [7]: 91.3%
- cell count [8]: 80.4%
- cell count [9]: 77.8%
- cell count [10]: 80.9%

SMILES: CC(C)C[C@H](NC(=O)[C@H](Cc1ccccc1)NC(=O)c1cnccn1)B(O)O [Bortezomib] + CN(C)S(=O)(=O)c1ccc2c(c1)/C(=C/c1cc3c([nH]1)CCCC3)C(=O)N2 [SU6656] (first compound 0.005 µM, partner dose 2 µM)
- cell count [1]: 0.435%
- cell count [2]: 15.6%
- cell count [3]: 12.1%
- cell count [4]: 5.38%
- cell count [5]: 14.9%
- cell count [6]: 32.3%
- cell count [7]: 4.13%
- cell count [8]: 14.7%
- cell count [9]: 2.55%
- cell count [10]: 7.18%

SMILES: Cc1cn(-c2cc(NC(=O)c3ccc(C)c(Nc4nccc(-c5cccnc5)n4)c3)cc(C(F)(F)F)c2)cn1 [nilotinib] + C#Cc1cccc(Nc2ncnc3cc(OCCOC)c(OCCOC)cc23)c1 [erlotinib] (first compound 1 µM, partner dose 4 µM)
- cell count [1]: 72.8%
- cell count [2]: 68.9%
- cell count [3]: 75.4%
- cell count [4]: 70.2%
- cell count [5]: 77.6%
- cell count [6]: 72.9%
- cell count [7]: 64.3%
- cell count [8]: 76.9%
- cell count [9]: 52.6%
- cell count [10]: 83.3%

SMILES: Cc1cc(Nc2cc(N3CCN(C)CC3)nc(/C=C/c3ccccc3)n2)n[nH]1 + Nc1nc(F)nc2c1ncn2[C@@H]1O[C@H](CO)[C@@H](O)[C@@H]1O [fludarabine] (first compound 0.2 µM, partner dose 1 µM)
- cell count [1]: 74.3%
- cell count [2]: 67.3%
- cell count [3]: 66.1%
- cell count [4]: 69.8%
- cell count [5]: 113%
- cell count [6]: 73.9%
- cell count [7]: 90.2%
- cell count [8]: 87.8%
- cell count [9]: 46.9%
- cell count [10]: 76.9%

SMILES: Cc1cn(-c2cc(NC(=O)c3ccc(C)c(Nc4nccc(-c5cccnc5)n4)c3)cc(C(F)(F)F)c2)cn1 [nilotinib] + CCCCCCCCCCCC1=C(O)C(=O)C=C(O)C1=O [Embelin] (first compound 1 µM, partner dose 6 µM)
- cell count [1]: 72.5%
- cell count [2]: 74.1%
- cell count [3]: 77.5%
- cell count [4]: 77.3%
- cell count [5]: 127%
- cell count [6]: 81.5%
- cell count [7]: 82.1%
- cell count [8]: 101%
- cell count [9]: 98.2%
- cell count [10]: 80.1%

SMILES: CC(C)C[C@H](NC(=O)[C@H](Cc1ccccc1)NC(=O)c1cnccn1)B(O)O [Bortezomib] + O=C1NC(=O)/C(=C/c2ccc(-c3ccc(F)cc3O)o2)S1 [AS252424] (first compound 0.005 µM, partner dose 5 µM)
- cell count [1]: 1.05%
- cell count [2]: 10.8%
- cell count [3]: 7.82%
- cell count [4]: 3.08%
- cell count [5]: 7.51%
- cell count [6]: 38.9%
- cell count [7]: 3.72%
- cell count [8]: 9.15%
- cell count [9]: 3.93%
- cell count [10]: 9.77%

SMILES: COc1ccc(C2=N[C@@H](c3ccc(Cl)cc3)[C@@H](c3ccc(Cl)cc3)N2C(=O)N2CCNC(=O)C2)c(OC(C)C)c1 [Nutlin-3] + CC(C)(C)c1cnc(CSc2cnc(NC(=O)C3CCNCC3)s2)o1 [SNS-032] (first compound 0.5 µM, partner dose 0.05 µM)
- cell count [1]: 60.2%
- cell count [2]: 96.8%
- cell count [3]: 88.7%
- cell count [4]: 56.2%
- cell count [5]: 53.2%
- cell count [6]: 83.6%
- cell count [7]: 65.4%
- cell count [8]: 87.6%
- cell count [9]: 18.9%
- cell count [10]: 15.2%

SMILES: CC(C)C[C@H](NC(=O)[C@H](Cc1ccccc1)NC(=O)c1cnccn1)B(O)O [Bortezomib] + Cn1c(Nc2ccc(C(F)(F)F)cc2)nc2cc(Oc3ccnc(-c4ncc(C(F)(F)F)[nH]4)c3)ccc21 [CHIR265] (first compound 0.005 µM, partner dose 0.4 µM)
- cell count [1]: 0.587%
- cell count [2]: 8.48%
- cell count [3]: 10.1%
- cell count [4]: 1.76%
- cell count [5]: 23.7%
- cell count [6]: 25.8%
- cell count [7]: 3.81%
- cell count [8]: 14.1%
- cell count [9]: 2.5%
- cell count [10]: 6.57%

SMILES: Cc1cc(Nc2cc(N3CCN(C)CC3)nc(/C=C/c3ccccc3)n2)n[nH]1 + CCc1ccc(CCOc2ccc(CC3SC(=O)NC3=O)cc2)nc1 [pioglitazone] (first compound 0.2 µM, partner dose 10 µM)
- cell count [1]: 89.8%
- cell count [2]: 87.7%
- cell count [3]: 90.3%
- cell count [4]: 82.4%
- cell count [5]: 85.9%
- cell count [6]: 83.2%
- cell count [7]: 85.8%
- cell count [8]: 67.2%
- cell count [9]: 73.9%
- cell count [10]: 93.6%

SMILES: Cc1cn(-c2cc(NC(=O)c3ccc(C)c(Nc4nccc(-c5cccnc5)n4)c3)cc(C(F)(F)F)c2)cn1 [nilotinib] + Nc1ncn([C@H]2C[C@H](O)[C@@H](CO)O2)c(=O)n1 [decitabine] (first compound 1 µM, partner dose 0.5 µM)
- cell count [1]: 93.5%
- cell count [2]: 79.3%
- cell count [3]: 91.8%
- cell count [4]: 88.7%
- cell count [5]: 95.3%
- cell count [6]: 91.5%
- cell count [7]: 110%
- cell count [8]: 86.1%
- cell count [9]: 96%
- cell count [10]: 96.2%
